# Laboratory results published in the supplement of paper PMC11417369.
# ± gives the standard deviation of the averaged measurements. This is one part of the list.
# Test system: PfAP2-EXP AP2 domain (GST-tagged)
# Test: gcPBM binding intensity (ln(normalized median fluorescence intensity)); higher = stronger DNA binding
# In short: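 Probes on an Agilent 4 × 180k array were primer-extended, double-stranded and 36 bp long, taken from intergenic genomic regions, with negative controls added. GST-tagged P. falciparum DNA-binding domains from E. coli, about 25 μg on average, were applied to the array for 1 h in 1× PBS containing 1% milk, 0.2 mg/ml BSA, 0.5% salmon testes DNA and 0.03% Triton X-100. Binding intensity, obtained after Alexa488 anti-GST antibody detection and a 488 nm scan, is the highest Masliner-normalised natural-log median intensity across replicate spots of either probe orientation.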
row,Sequence,gcPBM binding intensity (ln)
1,AGTACATTTTTTTTAATAGGAAAAAAAATATTTATT [TGCATGCA_negctrl_site575],8.29 ± 0.42
2,TTTAAAAAAATGAAATAAAAAAAAAATAAAATAAAA [XGTACX_negctrl_site316],8.36 ± 0.54
3,AAATAATTTATATATTGTACAAATATTAAATGCGAA [XGTACX_site3390],8.81 ± 0.36
4,ATATATATAATTTGTACACACAAATATGCATATATA [CACACA_site3432],8.6 ± 0.26
5,AGATATTTTTCTTAAGTACACACTAAATAGAAACTA [CACACA_site44],8.4 ± 0.45
6,AGTCTGAATAAAATTACACACATATACCTATAAATA [CACACA_site6929],8.32 ± 0.5
7,TTTTTTTTTTTCAGTTGTACATTGGGAAAATATATA [XGTACX_site4416],8.48 ± 0.47
8,AAAAATATATAAACACGTACACACACATATATGTAT [XGTACX_site7436],8.88 ± 0.54
9,GAAAAAAAAAAAAAAAGAAAATTCATATTTTTAATA [XGTACX_negctrl_site513],7.71 ± 0.56
10,ACATTTATATATAATTGTACCCTACATTCTCTTTTT [XGTACX_site189],8.7 ± 0.39
11,TACCAAAAAAAAAAAAAAAATTAAATAAATATGAAA [TGCATGCA_negctrl_site383],8.04 ± 0.34
12,GGGTTGATATATATTTGTACATATTATTATTTATTA [XGTACX_site7116],9.11 ± 0.66
13,TTTATTTTAACTTGTTCACACATTTGAATAAATAAA [CACACA_site5064],8.4 ± 0.45
14,ATATATATATATTATGTGCGCATATACCATTTTAAT [GTGCAC_site9575],9.69 ± 0.31
15,AATGGAAAAGGTAGTTGTACAACATGTTAAAATGGT [XGTACX_site1312],9.3 ± 0.44
16,ATATAAATATTAATTACACACAAAAAAAAAAAAAAA [CACACA_site6671],8.23 ± 0.45
17,AATAAAAAAAAACGCACACACAAATATATTCCATTC [CACACA_site1224],8.69 ± 0.54
18,CTCAAAAAATTTCATAGTACTTTAAAATACTATAAT [XGTACX_site1939],8.24 ± 0.44
19,ATATAAATAAACAACTTTGTTGGCCTTCCAAAATAT [CACACA_negctrl_site1181],8.44 ± 0.51

row,Sequence,gcPBM binding intensity (ln)
1,TTGAAGAATAAATATGCACACATGCATATATTTTTA [CACACA_site5840],8.38 ± 0.25
2,TTTTGTTCTAATATGGGAACATAAATATTAAATATA [CACACA_negctrl_site1787],8.22 ± 0.45
3,TAGATATATAGAATTACACACTTTTCTATAATATGA [CACACA_site6475],8.05 ± 0.44
4,AATAAAATACAAAAATGTACAAATATAATATACATA [XGTACX_site279],8.34 ± 0.28
5,TAATAATATAAATATGCACACAAATTATTACCCAAA [CACACA_site8805],8.59 ± 0.21
6,ATAAAATAAAACAACACACACGAATGTATAAATATA [CACACA_site4643],8.7 ± 0.61
7,TATATATATAAATGAATGCACTTTAGAAAAAAGTAC,8.72 ± 0.13
8,ATATATATTATAATAACACACATATATTATATTATA [CACACA_site406],8.29 ± 0.34
9,TAATATAAAATGATAAATGAATGTGATCATTTTATA [CACACA_negctrl_site1034],8.38 ± 0.36
10,ACATACTCAAATAGCACACACATAAATAAAAATGTA [CACACA_site3864],8.69 ± 0.49
11,CATATATATTTTATATGTACATATATATTTTATATA [XGTACX_site8665],8.45 ± 0.25
12,ATATATATTTAAAACGCATGCCTTGTTATATATATA [TGCATGCA_site624],9.11 ± 0.37
13,ATTACAAAAATATATAAACACACAAATATAATATAT [CACACA_site8962],8.69 ± 0.45
14,AATAAGAAAACAAATGCACACCATTTATATAGATTA [CACACA_site8261],8.47 ± 0.21
15,ATGGGTTAGGCGTGTACACAATTGTATGGTTTAATA [CACACA_site4812],9.12 ± 0.46
16,TATATTAATTATAAGACACACATATAGTAATAGAAA [CACACA_site2056],8.71 ± 0.38
17,TTTATATATTTTTATCTTGATAATAATGTTTTAGAA [TGCATGCA_negctrl_site300],8.08 ± 0.37
18,ACATATTTTTACTTTTGTACATATTTTTTAATTTTC [XGTACX_site640],8.91 ± 0.32
19,GTATATTACATAAAATGTACATAAAAAGCGGAAAAG [XGTACX_site6905],9.19 ± 0.34

row,Sequence,gcPBM binding intensity (ln)
1,AAATATAATTAATGATGTACACTTATAGATATTGAT [XGTACX_site8435],8.65 ± 0.32
2,TATAATAAAATTTTTACACACTTTAAAAAAAAAAAA [CACACA_site524],8.33 ± 0.41
3,TACTGATATAATATAACCGTTTATGTGTATTTTTTA [XGTACX_negctrl_site81],8.15 ± 0.48
4,GGGTTAATATTTACTACACACACTTAAAATATGTAT [CACACA_site47],8.59 ± 0.47
5,ATGTATTTTTAAAAATATAAATTATGTAACTTGTGA [XGTACX_negctrl_site620],8.38 ± 0.39
6,TATTCTCGTTCTCATACACACAAAATATACATACAC [CACACA_site7278],8.89 ± 0.45
7,TTCAAATATATGTTTTCACACACAAAAGAAATGAAA [CACACA_site8671],8.51 ± 0.41
8,CGTGGAAAAAAAAACACACACAAAAAAAAAAAAAAA [CACACA_site3997],8.15 ± 0.45
9,TTTTCTCTAAAAAGGTGTACAACTAATAATGCACTG [XGTACX_site6074],9.35 ± 0.75
10,ATATATATATAATATTGTACGAAAAAAAATAAAAAA [XGTACX_site974],9.405 ± 0.035
11,TTTTTTTTTTTTACATGTACATATGAATTATAATAT [XGTACX_site5016],8.82 ± 0.45
12,TATTTTACTTTAAAAATGGAAAAAAAAAAGAATATT [CACACA_negctrl_site1360],8.38 ± 0.47
13,GAAAGAAGCATAAATGTACACACATATTTATATATT [CACACA_site8368],8.44 ± 0.39
14,ATTGTCATCATTATATGTACGTAAAAGAATATAGAT [XGTACX_site3117],8.98 ± 0.39
15,TTAATAAAACTAACACGTACACATATATAATATTAT [XGTACX_site3260],8.77 ± 0.44
16,AAACAAATAGACACTTGTACGTAAGTAAATAATTAA [XGTACX_site6157],8.74 ± 0.43
17,TATGTTAAAAAAAAAAAAAAGAAAAAAATAAAAGGA [CACACA_negctrl_site119],8.45 ± 0.42
18,AAGGGAAAAATATGGTTGCACTAAAAATATGTAATT [GTGCAC_site9605],8.65 ± 0.31
